Source: ChEMBL document CHEMBL4888484, “Replenishing the malaria drug discovery pipeline: Screening and hit evaluation of the MMV Hit Generation Library 1 (HGL1) against asexual blood stage Plasmodium falciparum ,using a nano luciferase reporter read-out” (2022)
Screen size: about 150,000 compounds; about 540 (0.36%) showed an effect of 50% or more. The list shows a part of the results.

System: Plasmodium falciparum
Assay: Primary screen in NF54 nanoGlo assay, in single point, at 2uM, 72h; a lower Z score goes with more inhibition
Type: functional, Erythrocyte
Conditions: timepoint 72 hour

Going from `C[C@H](NC(=O)c1cc[nH]c1C1CCC1)c1cn[nH]c1` to `Cn1nc(C(=O)NC(c2ccc(F)cc2)C2CCCO2)ccc1=O` (stereo not given), the “% Inhibition” value falls from 1% to -14%.

First: COCC[C@]1(NS(=O)(=O)c2ccccc2)CCN(Cc2ccc(C(C)C)cc2)C1
Second: CC(C)n1c(=O)n(CC(=O)NCCCc2ccccc2)c2cc(S(=O)(=O)N3CCCC3)ccc21
The “% Inhibition” value of the first is higher: -7% for the first, -21% for the second.

First: Cc1nn(CC(C)C)c(Cl)c1CNCC[C@H]1CCCO1
Second: Cc1ccnn1CCN1CC[C@H](O)CC(C)(C)C1
The “% Inhibition” value of the first is higher: -5% for the first, -14% for the second.

Compared with `C[C@]1(O)CCN(C(=O)Cc2cccc(O)c2)C[C@H]1O`, `Cn1cc(C(=O)N2CCC(C(=O)O)(n3ccnc3)CC2)c2ccccc21` is higher in “% Inhibition” value: -6% for the first, -3% for the second.

Compared with `C[C@@]1(C(=O)N2CC(=O)N(C3CC3)C2)CCCNC1=O`, `O=C(CN1C(=O)CCc2cc(S(=O)(=O)N3CCCC3)ccc21)NC1CC1` is higher in “% Inhibition” value: -13% for the first, -5% for the second.

Compared with `CC[C@@H](c1cccnc1)N(C)Cc1ccc2nonc2c1`, `CN1C(=O)C[C@H](C(=O)NCc2ccc(Cl)cn2)[C@H]1c1cccnc1` is lower in “% Inhibition” value: -8% for the first, -12% for the second.

Compared with `Cc1ccc(F)c(-n2cc(O)c(C(=O)N3CCOC4(CCC4)C3)n2)c1`, `Cc1ccc2c(c1)NC(=O)c1cc(S(=O)(=O)N3CCCCC3)c(N3CCOCC3)cc1O2` is lower in “% Inhibition” value: -4% for the first, -6% for the second.

Compared with `CCOc1ncccc1C(=O)Nc1ccccc1-c1nnc(C)o1`, `COc1ccc(-c2cc(C(=O)NCc3nnc4ccccn34)[nH]n2)cc1OC` is lower in “% Inhibition” value: -10% for the first, -12% for the second.

Going from `CN1CCNC(=O)C12CCN(Cc1c[nH]c3ccccc13)CC2` to `COc1ccc(CN2CCCC23CCN(c2ncccn2)CC3)cc1O`, the “% Inhibition” value falls from -18% to -19%.

First: Cc1cc(CCCOCc2ccccc2)nc(N)n1
Second: Cc1ccc(-c2csc(-c3nc(-c4ccccc4)cs3)n2)c(C)c1
The “% Inhibition” value of the first is lower: 7% for the first, 10% for the second.

First: O=C(Cn1ccnc1)N[C@H]1CCCOc2c1ccc1ccccc21
Second: O=S(=O)(NCc1ccc(Cn2ccnc2)cc1)c1ccc(F)cc1
The “% Inhibition” value of the first is lower: -10% for the first, -2% for the second.

First: Cc1nc(C(C)C)nc(N2CCN(C(=O)c3ccccc3Cl)CC2)c1Cc1ccccc1F
Second: O=C(c1cc(O)nc2ccccc12)N1CCN(c2cnccn2)CC1
The “% Inhibition” value of the first is lower: 2% for the first, 4% for the second.

First: COCCC[C@H]1CCCCN1CCn1cccn1
Second: CC1CCCCC1OCCNS(C)(=O)=O (stereo not given)
The “% Inhibition” value of the first is lower: -15% for the first, -4% for the second.

Going from `O=C(N[C@H]1CC12CCC2)N1CC(Cc2ccco2)C1` to `O=C(Nc1ccccc1Cc1ccccc1)N1CCCN2CCC[C@H]2C1`, the “% Inhibition” value rises from -7% to -1%.

Going from `CC(C)N1CCN([C@H]2CCOC3(CCN(S(=O)(=O)Cc4ccccc4)CC3)C2)CC1` to `O=C(NC1CCCCC1)[C@H](Cc1ccccc1)n1cnnn1`, the “% Inhibition” value rises from -11% to -1%.

First: C=CCN(CC=C)C(=O)c1cccc(F)c1C#N
Second: O=C(NCc1cccc(F)c1)[C@H]1CC[C@H](Cn2cnnn2)CC1
The “% Inhibition” value of the first is higher: -8% for the first, -17% for the second.

First: Cc1nc(CN[C@H](C)c2ccc(Br)cc2)cs1
Second: Cc1csc(CNC(=O)C2=NN(C)C(=O)CC2)n1
The “% Inhibition” value of the first is lower: -10% for the first, 6% for the second.

First: O=C(Nc1c(F)cccc1F)N1CCC(Oc2ccccn2)CC1
Second: Cc1ccc(N2CCN(Cc3nc(C(=O)NCc4ccccc4)co3)CC2)cc1
The “% Inhibition” value of the first is lower: -11% for the first, -4% for the second.

Compared with `O=C1Cc2cc(S(=O)(=O)Nc3ccccc3C(=O)NCc3ccco3)ccc2N1`, `O=C(Cc1ccccc1Br)Nc1ccc2c(c1)C(=O)NC2` is higher in “% Inhibition” value: -32% for the first, 4% for the second.

Compared with `COc1ccc(CNC(=O)CC2CCN(S(=O)(=O)c3ccc4c(c3)CCN4C(C)=O)CC2)cc1`, `Cc1ccc(NC(=O)CNc2cc(S(=O)(=O)N3CCOCC3)ccc2NC[C@H]2CCCO2)cc1F` is higher in “% Inhibition” value: -17% for the first, -10% for the second.

First: Cc1noc(C)c1CCC(=O)N1C[C@@H]2C[C@H]1C(=O)N2c1cccc(Cl)c1
Second: CC1CCN(C(=O)c2cnnn2C)C1c1ccc(C(F)(F)F)cc1 (stereo not given)
The “% Inhibition” value of the first is higher: -1% for the first, -3% for the second.

Going from `c1cc2c(cc1-c1noc(C3CCNCC3)n1)OCO2` to `O=C(NCc1nc2c(s1)COCC2)c1ccc2c(c1)CCCC2`, the “% Inhibition” value rises from 0% to 38%.

Compared with `CCCCS(=O)(=O)N[C@@H](CC)c1nccs1`, `COCCOc1cc(C(=O)OC)ccc1N` is higher in “% Inhibition” value: -15% for the first, 3% for the second.

First: OC1CCN(c2ccc3nnnn3n2)CC1
Second: OC1CCC(CNc2ncc(Cl)cc2Br)C1 (stereo not given)
The “% Inhibition” value of the first is higher: -9% for the first, -10% for the second.

Compared with `CCc1ccc(CNC(=O)c2ccc(-c3c(-c4ccc(C)cc4)ncn3C3CCCC3)o2)cc1`, `O=C(Cc1ccc(F)cc1)NCC1=CCCN(Cc2c[nH]cn2)C1` is higher in “% Inhibition” value: -9% for the first, -1% for the second.

Going from `C#CCN(CC#C)Cc1cnn(CC)c1` to `CCOCCC(=O)N[C@H]1CC(=O)Nc2ccccc21`, the “% Inhibition” value rises from 5% to 6%.

Compared with `Cc1noc(C(C)(C)NC(=O)Nc2nc(C(C)(C)C)ns2)n1`, `CN1C(=O)N(C)C2=NNC(c3ccc(N(C)C)cc3)=N[C@@]2(c2c[nH]c3ccccc23)C1=O` is lower in “% Inhibition” value: -4% for the first, -8% for the second.

With `O=C(CCCOc1ccc(Cl)cc1Cl)NC1CCC(CC2CCC(NC(=O)CCCOc3ccc(Cl)cc3Cl)CC2)CC1` (stereo not given) the “% Inhibition” value was -4%.

First: C[C@H](NC(=O)c1cc[nH]c1C1CCC1)c1cn[nH]c1
Second: Cn1nc(C(=O)NC(c2ccc(F)cc2)C2CCCO2)ccc1=O (stereo not given)
The Z score of the first is lower: -0.1 for the first, 1.78 for the second.

Compared with `COCC[C@]1(NS(=O)(=O)c2ccccc2)CCN(Cc2ccc(C(C)C)cc2)C1`, `CC(C)n1c(=O)n(CC(=O)NCCCc2ccccc2)c2cc(S(=O)(=O)N3CCCC3)ccc21` is higher in Z score: 0.84 for the first, 2.49 for the second.

Going from `Cc1nn(CC(C)C)c(Cl)c1CNCC[C@H]1CCCO1` to `Cc1ccnn1CCN1CC[C@H](O)CC(C)(C)C1`, the Z score rises from 0.7 to 2.62.

Compared with `C[C@]1(O)CCN(C(=O)Cc2cccc(O)c2)C[C@H]1O`, `Cn1cc(C(=O)N2CCC(C(=O)O)(n3ccnc3)CC2)c2ccccc21` is lower in Z score: 0.83 for the first, 0.27 for the second.

Compared with `C[C@@]1(C(=O)N2CC(=O)N(C3CC3)C2)CCCNC1=O`, `O=C(CN1C(=O)CCc2cc(S(=O)(=O)N3CCCC3)ccc21)NC1CC1` is lower in Z score: 1.07 for the first, 0.94 for the second.

First: CC[C@@H](c1cccnc1)N(C)Cc1ccc2nonc2c1
Second: CN1C(=O)C[C@H](C(=O)NCc2ccc(Cl)cn2)[C@H]1c1cccnc1
The Z score of the first is lower: 0.93 for the first, 1.66 for the second.

Compared with `Cc1ccc(F)c(-n2cc(O)c(C(=O)N3CCOC4(CCC4)C3)n2)c1`, `Cc1ccc2c(c1)NC(=O)c1cc(S(=O)(=O)N3CCCCC3)c(N3CCOCC3)cc1O2` is higher in Z score: 0.49 for the first, 0.85 for the second.

First: CCOc1ncccc1C(=O)Nc1ccccc1-c1nnc(C)o1
Second: COc1ccc(-c2cc(C(=O)NCc3nnc4ccccn34)[nH]n2)cc1OC
The Z score of the first is lower: 1.16 for the first, 1.49 for the second.

First: CN1CCNC(=O)C12CCN(Cc1c[nH]c3ccccc13)CC2
Second: COc1ccc(CN2CCCC23CCN(c2ncccn2)CC3)cc1O
The Z score of the first is lower: 1.85 for the first, 1.88 for the second.

Going from `Cc1cc(CCCOCc2ccccc2)nc(N)n1` to `Cc1ccc(-c2csc(-c3nc(-c4ccccc4)cs3)n2)c(C)c1`, the Z score falls from -1.05 to -1.13.

First: O=C(Cn1ccnc1)N[C@H]1CCCOc2c1ccc1ccccc21
Second: O=S(=O)(NCc1ccc(Cn2ccnc2)cc1)c1ccc(F)cc1
The Z score of the first is higher: 1.86 for the first, 0.25 for the second.

Going from `Cc1nc(C(C)C)nc(N2CCN(C(=O)c3ccccc3Cl)CC2)c1Cc1ccccc1F` to `O=C(c1cc(O)nc2ccccc12)N1CCN(c2cnccn2)CC1`, the Z score falls from -0.2 to -0.62.

Going from `COCCC[C@H]1CCCCN1CCn1cccn1` to `CC1CCCCC1OCCNS(C)(=O)=O` (stereo not given), the Z score falls from 1.69 to 0.34.

Compared with `O=C(N[C@H]1CC12CCC2)N1CC(Cc2ccco2)C1`, `O=C(Nc1ccccc1Cc1ccccc1)N1CCCN2CCC[C@H]2C1` is lower in Z score: 0.68 for the first, 0.1 for the second.

First: CC(C)N1CCN([C@H]2CCOC3(CCN(S(=O)(=O)Cc4ccccc4)CC3)C2)CC1
Second: O=C(NC1CCCCC1)[C@H](Cc1ccccc1)n1cnnn1
The Z score of the first is higher: 1.22 for the first, 0.08 for the second.

First: C=CCN(CC=C)C(=O)c1cccc(F)c1C#N
Second: O=C(NCc1cccc(F)c1)[C@H]1CC[C@H](Cn2cnnn2)CC1
The Z score of the first is lower: 0.95 for the first, 2.09 for the second.

Compared with `Cc1nc(CN[C@H](C)c2ccc(Br)cc2)cs1`, `Cc1csc(CNC(=O)C2=NN(C)C(=O)CC2)n1` is lower in Z score: 1.29 for the first, -1.05 for the second.

Compared with `O=C(Nc1c(F)cccc1F)N1CCC(Oc2ccccn2)CC1`, `Cc1ccc(N2CCN(Cc3nc(C(=O)NCc4ccccc4)co3)CC2)cc1` is lower in Z score: 2.13 for the first, 0.67 for the second.

First: O=C1Cc2cc(S(=O)(=O)Nc3ccccc3C(=O)NCc3ccco3)ccc2N1
Second: O=C(Cc1ccccc1Br)Nc1ccc2c(c1)C(=O)NC2
The Z score of the first is higher: 3.76 for the first, -0.66 for the second.

First: COc1ccc(CNC(=O)CC2CCN(S(=O)(=O)c3ccc4c(c3)CCN4C(C)=O)CC2)cc1
Second: Cc1ccc(NC(=O)CNc2cc(S(=O)(=O)N3CCOCC3)ccc2NC[C@H]2CCCO2)cc1F
The Z score of the first is lower: 1.62 for the first, 1.67 for the second.

Compared with `Cc1noc(C)c1CCC(=O)N1C[C@@H]2C[C@H]1C(=O)N2c1cccc(Cl)c1`, `CC1CCN(C(=O)c2cnnn2C)C1c1ccc(C(F)(F)F)cc1` (stereo not given) is higher in Z score: 0.11 for the first, 0.52 for the second.

Compared with `c1cc2c(cc1-c1noc(C3CCNCC3)n1)OCO2`, `O=C(NCc1nc2c(s1)COCC2)c1ccc2c(c1)CCCC2` is lower in Z score: 0.04 for the first, -3.89 for the second.

Going from `CCCCS(=O)(=O)N[C@@H](CC)c1nccs1` to `COCCOc1cc(C(=O)OC)ccc1N`, the Z score falls from 1.48 to -0.36.

Going from `OC1CCN(c2ccc3nnnn3n2)CC1` to `OC1CCC(CNc2ncc(Cl)cc2Br)C1` (stereo not given), the Z score falls from 1.33 to 1.01.

First: CCc1ccc(CNC(=O)c2ccc(-c3c(-c4ccc(C)cc4)ncn3C3CCCC3)o2)cc1
Second: O=C(Cc1ccc(F)cc1)NCC1=CCCN(Cc2c[nH]cn2)C1
The Z score of the first is higher: 1.69 for the first, 0.15 for the second.

First: C#CCN(CC#C)Cc1cnn(CC)c1
Second: CCOCCC(=O)N[C@H]1CC(=O)Nc2ccccc21
The Z score of the first is higher: -0.53 for the first, -1.12 for the second.

Going from `Cc1noc(C(C)(C)NC(=O)Nc2nc(C(C)(C)C)ns2)n1` to `CN1C(=O)N(C)C2=NNC(c3ccc(N(C)C)cc3)=N[C@@]2(c2c[nH]c3ccccc23)C1=O`, the Z score rises from 0.64 to 1.04.

Work on `O=C(CCCOc1ccc(Cl)cc1Cl)NC1CCC(CC2CCC(NC(=O)CCCOc3ccc(Cl)cc3Cl)CC2)CC1` (stereo not given) yielded a Z score of 0.61.
